Test results published in article PMC8199331, “Baicalein Ameliorates Streptococcus suis-Induced Infection In Vitro and In Vivo” (International Journal of Molecular Sciences, 2021).

Biological target: SLY (suilysin) (Streptococcus suis, UniProt Q55996)
Conditions: 100 ng/mL SLY; 0-32 μg/mL baicalein; 37 °C

O=c1cc(-c2ccccc2)oc2cc(O)c(O)c(O)c12 [Baicalein]
hemolytic activity: hemolytic activity of purified SLY decreased significantly with elevated baicalein concentration
